Results as given in PMC4336329 (PLoS ONE, 2015).
Hit rate of the full screen: of about 310,000 compounds, about 2,200 (0.71%) showed an effect of 50% or more. Effects have a minus sign here. This is one part of the list.

target: human ether-à-go-go-related gene (hERG) potassium channel (human, UniProt Q12809); assay: primary screen, population patch clamp on CHO cells stably expressing hERG
Sequence (Q12809 whole entry, looked up): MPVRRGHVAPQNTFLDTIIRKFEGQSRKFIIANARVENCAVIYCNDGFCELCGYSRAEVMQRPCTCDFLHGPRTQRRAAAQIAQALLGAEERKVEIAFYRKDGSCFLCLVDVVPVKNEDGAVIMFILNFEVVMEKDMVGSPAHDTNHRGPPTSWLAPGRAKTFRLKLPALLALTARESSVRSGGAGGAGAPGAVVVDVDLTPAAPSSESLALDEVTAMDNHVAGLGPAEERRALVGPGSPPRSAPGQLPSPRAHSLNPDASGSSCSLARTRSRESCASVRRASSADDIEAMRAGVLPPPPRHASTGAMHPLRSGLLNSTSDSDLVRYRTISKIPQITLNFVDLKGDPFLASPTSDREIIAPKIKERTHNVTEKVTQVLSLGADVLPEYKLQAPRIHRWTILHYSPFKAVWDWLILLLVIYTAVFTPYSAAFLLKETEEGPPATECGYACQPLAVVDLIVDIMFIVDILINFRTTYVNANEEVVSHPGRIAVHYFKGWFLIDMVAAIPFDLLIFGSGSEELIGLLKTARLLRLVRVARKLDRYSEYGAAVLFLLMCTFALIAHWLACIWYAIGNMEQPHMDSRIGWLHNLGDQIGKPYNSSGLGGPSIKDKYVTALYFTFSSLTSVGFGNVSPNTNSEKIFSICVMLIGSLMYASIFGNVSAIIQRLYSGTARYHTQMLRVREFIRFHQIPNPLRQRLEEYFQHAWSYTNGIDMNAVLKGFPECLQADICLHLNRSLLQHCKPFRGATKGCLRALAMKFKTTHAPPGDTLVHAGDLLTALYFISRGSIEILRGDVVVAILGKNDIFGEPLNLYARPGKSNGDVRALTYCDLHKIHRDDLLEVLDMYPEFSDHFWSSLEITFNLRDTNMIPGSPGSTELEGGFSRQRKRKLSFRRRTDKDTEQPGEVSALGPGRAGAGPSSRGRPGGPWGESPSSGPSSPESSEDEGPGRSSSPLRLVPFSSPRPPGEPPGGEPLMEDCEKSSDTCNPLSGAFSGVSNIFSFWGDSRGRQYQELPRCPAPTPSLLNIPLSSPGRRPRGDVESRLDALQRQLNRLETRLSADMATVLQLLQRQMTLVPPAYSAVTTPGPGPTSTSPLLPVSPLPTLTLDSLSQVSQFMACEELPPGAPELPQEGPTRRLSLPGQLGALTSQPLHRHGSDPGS

**Q.** How did the “hERG current change (%, negative = inhibition) at 1uM” value turn out when `Cn1c(CCC(=O)Nc2cc(S(C)(=O)=O)ccc2Cl)nc2cc(S(=O)(=O)N3CCOCC3)ccc21` was run?
**A.** Its value is -12.8%.

**Q.** How did the “hERG current change (%, negative = inhibition) at 1uM” value turn out when `CC(C)[C@H](NC(=O)C1CC(=O)N(c2ccc3c(c2)OCO3)C1)C(=O)NC1CCCC1` (some centres unmarked) was run?
**A.** Its value is 8.54%.

**Q.** Which “hERG current change (%, negative = inhibition) at 1uM” value does the source give for `COc1cc(C(=O)NC2=NCCS2)cc(OC)c1OC` here?
**A.** The value was 7.19%.

**Q.** `COc1ccc(C2=NOC3(CC(=O)N(c4ccc(C)cc4)C3=O)C2)c(OC)c1` (centres unmarked) was tested. Which “hERG current change (%, negative = inhibition) at 1uM” value did it give?
**A.** The value was 7.87%.

**Q.** Which “hERG current change (%, negative = inhibition) at 1uM” value does the source give for `Cc1ccc(NC2=C(N3CCOCC3)C(=O)c3ccccc3C2=O)cc1` here?
**A.** The value was 4.37%.

**Q.** Which “hERG current change (%, negative = inhibition) at 1uM” value does the source give for `CCOc1ccccc1/C=N/NC(=O)c1cccc(S(=O)(=O)N2CCOCC2)c1` here?
**A.** The value was 4.19%.

**Q.** With `O=C1CC(NCc2cccs2)C(=O)N1c1ccc(Cl)cc1` (centres unmarked) as the molecule, how does the “hERG current change (%, negative = inhibition) at 1uM” value read?
**A.** Its value is 1.41%.

**Q.** With `Cc1ccn2cc(-c3cccc(NS(C)(=O)=O)c3)nc2c1` as the molecule, how does the “hERG current change (%, negative = inhibition) at 1uM” value read?
**A.** The value was 4.5%.

**Q.** For `Cc1cc(=O)oc2cc(NC(=O)C(C)Oc3ccccc3)ccc12` (centres unmarked), which “hERG current change (%, negative = inhibition) at 1uM” value is on record?
**A.** Its value is 18.8%.

**Q.** For `Cc1c(NC(=O)C(C)OC(=O)CCC2CCCC2)c(=O)n(-c2ccccc2)n1C` (centres unmarked), which “hERG current change (%, negative = inhibition) at 1uM” value is on record?
**A.** The value was 5.81%.

**Q.** `COc1cc(N2C(=O)c3ccccc3C2=O)c(Cl)cc1C(=O)OCC(=O)N1CCOCC1` was tested. Which “hERG current change (%, negative = inhibition) at 1uM” value did it give?
**A.** The value was 8.96%.

**Q.** Which “hERG current change (%, negative = inhibition) at 1uM” value does the source give for `Cc1cccc(C)c1NC(=O)CNC(=O)C1CC(=O)N(Cc2ccccc2)C1` (centres unmarked) here?
**A.** The value was 7.66%.

**Q.** How did the “hERG current change (%, negative = inhibition) at 1uM” value turn out when `O=c1oc(-c2ccc(F)cc2)nc2ccsc12` was run?
**A.** The value was 13.2%.

**Q.** `COc1ccccc1N1CCN(CCCC(=O)c2ccc(F)cc2)CC1` was tested. Which “hERG current change (%, negative = inhibition) at 1uM” value did it give?
**A.** Its value is -43.2%.

**Q.** For `CCc1cccc2c(=O)c(C(=O)NCCCOC)c[nH]c12`, which “hERG current change (%, negative = inhibition) at 1uM” value is on record?
**A.** Its value is 17%.

**Q.** For `Cc1cccc(C2N(c3nccs3)C(=O)C3CCCN32)c1` (centres unmarked), which “hERG current change (%, negative = inhibition) at 1uM” value is on record?
**A.** Its value is 3.77%.

**Q.** For `O=C(Oc1ccc2c(-c3ccccc3)cc(=O)oc2c1)c1cccs1`, which “hERG current change (%, negative = inhibition) at 1uM” value is on record?
**A.** The value was 16.7%.

**Q.** With `CCN(CCn1cccn1)C(=O)CCc1nnc(C2CCCCC2)o1` as the molecule, how does the “hERG current change (%, negative = inhibition) at 1uM” value read?
**A.** Its value is 5.25%.

**Q.** For `COc1cccc(C(=O)NNC2=CC(=O)CC(C)(C)C2)c1`, which “hERG current change (%, negative = inhibition) at 1uM” value is on record?
**A.** Its value is 0.873%.

**Q.** With `c1ccc2c(c1)CSc1ccccc1C2C1=NCCN1` (centres unmarked) as the molecule, how does the “hERG current change (%, negative = inhibition) at 1uM” value read?
**A.** Its value is 10.5%.

**Q.** For `O=C(CN(C1CC1)S(=O)(=O)c1ccc(S(=O)(=O)N2CCCCCC2)cc1)Nc1ccccc1`, which “hERG current change (%, negative = inhibition) at 1uM” value is on record?
**A.** The value was 15.8%.

**Q.** `Cc1ccccc1Cn1cc(S(=O)(=O)CC(=O)N2CCCCC2)c2ccccc21` was tested. Which “hERG current change (%, negative = inhibition) at 1uM” value did it give?
**A.** The value was 8.8%.

**Q.** With `C(/C=C/c1ccccc1)=N/N1CCN(c2ccccc2)CC1` as the molecule, how does the “hERG current change (%, negative = inhibition) at 1uM” value read?
**A.** The value was 7.78%.

**Q.** `O=C(NC1CC1)c1sc2cc(Cl)ccc2c1Cl` was tested. Which “hERG current change (%, negative = inhibition) at 1uM” value did it give?
**A.** The value was 11.3%.

**Q.** Which “hERG current change (%, negative = inhibition) at 1uM” value does the source give for `Cc1c(C(=O)OC2CCCCC2)sc2nc[nH]c(=O)c12` here?
**A.** Its value is 16%.

**Q.** For `N#Cc1ccc(OCC(O)CN2CCN(C(c3ccccc3)c3ccccc3)CC2)cc1` (centres unmarked), which “hERG current change (%, negative = inhibition) at 1uM” value is on record?
**A.** Its value is -69.5%.

**Q.** How did the “hERG current change (%, negative = inhibition) at 1uM” value turn out when `Cc1cc(-c2nn(-c3ccccc3F)cc2CNCCc2cnccn2)c(C)s1` was run?
**A.** Its value is -2.82%.

**Q.** `COc1ccc(CCNc2ncccc2C#N)cc1OC` was tested. Which “hERG current change (%, negative = inhibition) at 1uM” value did it give?
**A.** Its value is 9.52%.

**Q.** How did the “hERG current change (%, negative = inhibition) at 1uM” value turn out when `CC(=O)N1CCC(N(CCN2CCOCC2)C(=S)Nc2ccc(C)cc2C)CC1` was run?
**A.** The value was 4.82%.

**Q.** How did the “hERG current change (%, negative = inhibition) at 1uM” value turn out when `O=S(=O)(c1cc(F)cc(F)c1)N1CCN(c2ncccn2)CC1` was run?
**A.** Its value is 10.7%.

**Q.** For `CCC(=O)NC(=S)Nc1ccccc1OC`, which “hERG current change (%, negative = inhibition) at 1uM” value is on record?
**A.** Its value is -15.8%.

**Q.** `O=C(NCC1CCCO1)C1CC(c2ccccc2Cl)=NO1` (centres unmarked) was tested. Which “hERG current change (%, negative = inhibition) at 1uM” value did it give?
**A.** The value was -2.62%.

**Q.** `COc1ccc(CN2CCN(C(=O)CC(C)C)CC2)cc1OC` was tested. Which “hERG current change (%, negative = inhibition) at 1uM” value did it give?
**A.** The value was 5.56%.

**Q.** How did the “hERG current change (%, negative = inhibition) at 1uM” value turn out when `Cc1cc(-c2n[nH]c(=S)n2Cc2ccco2)n(C)n1` was run?
**A.** The value was 15.1%.

**Q.** Which “hERG current change (%, negative = inhibition) at 1uM” value does the source give for `COc1ccc(-c2cc(C(=O)Nc3ccc(Br)cc3)no2)cc1` here?
**A.** The value was 6.41%.

**Q.** How did the “hERG current change (%, negative = inhibition) at 1uM” value turn out when `O=C(CN(c1cccc(Br)c1)S(=O)(=O)c1ccccc1)N/N=C/c1cc([N+](=O)[O-])ccc1O` was run?
**A.** Its value is 5.12%.

**Q.** Which “hERG current change (%, negative = inhibition) at 1uM” value does the source give for `CC(=O)N1N=C(c2ccccc2)CC1c1ccc2c(c1)OCO2` (centres unmarked) here?
**A.** Its value is 15.8%.

**Q.** Which “hERG current change (%, negative = inhibition) at 1uM” value does the source give for `COC(=O)c1ccc(Cl)c(NC(=O)CN(c2ccc(OC)c(OC)c2)S(C)(=O)=O)c1` here?
**A.** Its value is 6.68%.

**Q.** `CCCOC1CCCN(C(=O)c2cc(COc3c(F)cccc3F)on2)C1` (centres unmarked) was tested. Which “hERG current change (%, negative = inhibition) at 1uM” value did it give?
**A.** Its value is -1.24%.

**Q.** Which “hERG current change (%, negative = inhibition) at 1uM” value does the source give for `CCOC(=O)N1CCC(n2c(SCC(=O)NCCC3=CCCCC3)nc3ccccc3c2=O)CC1` here?
**A.** The value was -2.01%.

**Q.** Which “hERG current change (%, negative = inhibition) at 1uM” value does the source give for `O=C(O)C1Oc2cc3ccccc3cc2O1` here?
**A.** Its value is 4.54%.

**Q.** How did the “hERG current change (%, negative = inhibition) at 1uM” value turn out when `COC(=O)c1ccc(C(=O)OC)c(NC(=O)CN(C)Cc2cccc(Cl)c2Cl)c1` was run?
**A.** The value was 3.91%.

**Q.** With `CCCS(=O)(=O)N1CCCC(C(=O)NCc2ccc3c(c2)OCO3)C1` (centres unmarked) as the molecule, how does the “hERG current change (%, negative = inhibition) at 1uM” value read?
**A.** The value was 6.43%.

**Q.** Which “hERG current change (%, negative = inhibition) at 1uM” value does the source give for `CC(C)Oc1ccc(C(CC(=O)O)NC(=O)CSc2ncn[nH]2)cc1` (centres unmarked) here?
**A.** The value was 3.85%.

**Q.** `COC(=O)CSc1ccc2nnc(-c3ccc(F)cc3)n2n1` was tested. Which “hERG current change (%, negative = inhibition) at 1uM” value did it give?
**A.** Its value is -25.6%.

**Q.** For `COc1ccc(CNCCc2ccc(Cl)cc2)cc1OCc1ccccc1`, which “hERG current change (%, negative = inhibition) at 1uM” value is on record?
**A.** Its value is -52.2%.

**Q.** For `CNC(=S)NNC(=O)Cc1ccc(OC)c(OC)c1`, which “hERG current change (%, negative = inhibition) at 1uM” value is on record?
**A.** The value was 1.59%.

**Q.** `CN(C)c1ccc(NC(=S)N(CCc2ccccc2)C2CC(=O)N(c3c(Cl)cccc3Cl)C2=O)cc1` (centres unmarked) was tested. Which “hERG current change (%, negative = inhibition) at 1uM” value did it give?
**A.** Its value is 1.88%.

**Q.** How did the “hERG current change (%, negative = inhibition) at 1uM” value turn out when `COc1ccc(CCN(C)C2CCCN(C(=O)Cn3cccn3)C2)cc1OC` (centres unmarked) was run?
**A.** The value was 4.24%.

**Q.** How did the “hERG current change (%, negative = inhibition) at 1uM” value turn out when `COc1ccccc1C(=O)COC(=O)c1cc(S(=O)(=O)N2CCCCC2)ccc1N1CCOCC1` was run?
**A.** The value was 14.1%.

**Q.** How did the “hERG current change (%, negative = inhibition) at 1uM” value turn out when `CCCCc1ccc(NC(=O)N2CCN(c3cc(C)nc4ccccc34)CC2)c(C)c1` was run?
**A.** The value was 4.71%.

**Q.** `COc1ccc(/C=C\c2cc(OC)c(OC)cc2CC[N+](C)(C)C)cc1OC.[I-]` was tested. Which “hERG current change (%, negative = inhibition) at 1uM” value did it give?
**A.** Its value is 15.9%.

**Q.** With `CS(=O)(=O)N1CCc2cc(C(=O)Nc3ccc(Br)cc3)ccc21` as the molecule, how does the “hERG current change (%, negative = inhibition) at 1uM” value read?
**A.** The value was 14.2%.

**Q.** How did the “hERG current change (%, negative = inhibition) at 1uM” value turn out when `CC1=C(C(=O)OC2CCCCC2)C(c2ccc(N(C)C)cc2)NC(=O)N1` (centres unmarked) was run?
**A.** The value was 13.9%.

**Q.** `COc1cccc(C2C3=C(CC(C)(C)CC3=O)Nc3cc4c(cc32)OCO4)c1` (centres unmarked) was tested. Which “hERG current change (%, negative = inhibition) at 1uM” value did it give?
**A.** The value was 1.65%.

**Q.** Which “hERG current change (%, negative = inhibition) at 1uM” value does the source give for `CCn1c(COc2ccc(=O)n(-c3ccccc3)n2)nnc1SCc1cccc(OC)c1` here?
**A.** The value was -3.36%.
